Experimental findings from PubChem BioAssay (NCI) are described below.

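Where inhibition never reached the appropriate level, the endpoint shown equals the highest concentration tested. Otherwise, values were interpolated linearly from a five-concentration, 48-hour dose response in 96-well plates. Abbreviation: GI50, concentration required for 50% inhibition of growth. TGI: concentration producing complete growth inhibition.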

This assay concerns NCI-H322M lung. Description: NCI anticancer screen, dose series, 48 h.

`CC(C)c1cccc(C(=O)NCCN(C)C)c1[N+](=O)[O-]`: the TGI was more than 100 µM.

For `Cn1c(=O)cc(NCCc2ccccc2)[nH]c1=O`, the TGI is more than 100 µM.

With `COc1cc(-c2cc(/C=C3\C(=O)Nc4ccccc43)[nH]n2)cc(OC)c1OC`, the GI50 was 4.74 µM and the TGI is 18.6 µM.

In turn, `Cc1ccc(NC(=O)C2C(=O)N(c3ccc(C)c(C)c3)C(=O)/C2=N\NC(N)=S)cc1C` (stereo not drawn) gave a TGI of more than 100 µM.

In the case of `O=C1c2ccccc2C(C2c3ccccc3C(=O)c3cc(Br)ccc32)c2ccc(Br)cc21` (stereo not drawn), the TGI was more than 100 µM.

The compound `O=C1/C(=C\c2ccc(F)cc2)CCOc2c1ccc1ccccc21` gave a TGI of 60 µM.

In turn, `Cn1c2ccccc2c(=O)c2c([N+](=O)[O-])ccc(NCCN)c21` showed a TGI of 22.2 µM.

For `O=C(O)c1cc(O)c2c(c1)C([C@@H]1c3cccc(O)c3C(=O)c3c(O)cc(C(=O)O)cc31)c1cccc(O)c1C2=O` (stereo partly drawn), the TGI was more than 100 µM.

`S=C1N=C(Cl)/C(=C\c2ccco2)N1` registered a TGI of more than 100 µM.

Turning to `O=C(Nc1cccc(O)c1)c1cccc(NC2=C(Cl)C(=O)N(Cc3ccccc3)C2=O)c1`, the GI50 is 11.9 µM and the TGI is 24.2 µM.

Compound `Cc1ccccc1NC(=O)CC(=O)N1N=C(N2c3ccccc3Sc3ccccc32)CC1c1ccccc1` (stereo not drawn) returned a TGI of more than 100 µM.

The compound `CN(NC(=O)/C(=C\c1ccco1)NC(=O)c1ccccc1)c1cn[nH]c(=O)c1Cl` displayed a TGI of more than 100 µM.

`O=C(O)Cn1c(=O)[nH]c(=O)c2[nH]cnc21` had a TGI of more than 100 µM.

The compound `NC(Cc1ccnnc1)C(=O)O` (stereo not drawn) had a TGI of more than 100 µM.

`COC1C(O)C(C)OC(OC2CC3CCC4C(CCC5(C)C(C6=CC(=O)OC6)CCC45O)C3(O)C(OC(C)=O)C2)C1O` (stereo not drawn): the TGI turned out to be 10.1 µM.

`CCCCCCNc1nc(N2CCOCC2)c2[nH]c(NCCCCCC)nc2n1`: the GI50 is 1.81 µM and the TGI was 3.6 µM.

The compound `Cc1n[nH]c(=O)n1/N=C/c1ccncc1` gave a TGI of more than 100 µM.

In turn, `CCCCN(CCCC)C(=O)C(=O)C(C)C(=O)CC` (stereo not drawn) showed a TGI of more than 100 µM.

The compound `CC(C)(C)[Si](C)(C)OCC1C=CC(n2cnc3c(N)ncnc32)O1` (stereo not drawn) showed a TGI of more than 100 µM.

Turning to `C#Cc1cccc(Oc2ccc(NC(=O)CCl)cc2)c1`, the GI50 is more than 82.5 µM and the TGI is more than 82.5 µM.

The compound `COc1ccc([C@]23CCN(S(=O)(=O)c4ccc(C)cc4)[C@H]2[C@H](CO)C2(CC3)OCC(C)(C)CO2)cc1OC` showed a TGI of more than 100 µM.

For `O=C(Cn1c2ccc(Br)cc2c2nc3ccccc3nc21)N/N=C/c1ccccc1`, the TGI is more than 100 µM.

In the case of `Nc1cc(-c2ccc(Cl)cc2)nn1-c1nc2ccccc2nc1-c1ccccc1`, the TGI is more than 100 µM.

Regarding `COc1cc(NCC2COc3c(ccc(OC)c3OC)C2=O)c([N+](=O)[O-])cc1OC` (stereo not drawn), the TGI was more than 100 µM.

The compound `CCc1cccc(C(C)CC)c1NC(=O)C(=O)C(CC(=O)Nc1ccc(Cl)c(Cl)c1)C(=O)OC` (stereo not drawn) came in with a TGI of more than 100 µM.

`CCc1cccc(CC)c1NC(=O)C1=C(C)NC(C)=C(C(=O)Nc2c(CC)cccc2CC)C1c1ccc2c(c1)OCO2`: the TGI was 30.8 µM.

As to `C/C(CC(=O)NC1=CC=C(NC(=O)C/C(C)=N\Nc2ccccc2)CC1)=N/Nc1ccccc1`, the TGI is more than 100 µM.

In turn, `CC(/C=N\NC(=S)N(C)C)=N/NC(=S)N(C)C` displayed a TGI of more than 92.1 µM.

With `O=S(=O)(O)c1cc(N=[N+]([O-])c2cc(S(=O)(=O)O)c3ccccc3c2)cc2ccccc12`, the TGI is more than 100 µM.

`O=[N+]([O-])C(=C(Nc1ccccc1)Nc1ccccc1)/C(Cl)=C(\Cl)Br` registered a TGI of 29.3 µM.

As to `CC(C)(C)[Si](C)(C)OCC1OC(n2cnc3c(N)ncnc32)CC1OS(C)(=O)=O` (stereo not drawn), the TGI was more than 100 µM.

`NCCP(=O)(O)O`: the TGI was more than 100 µM.

Regarding `COc1cc([C@@H]2c3cc4c(cc3[C@@H](c3c(O)cc(O)c5c3O[C@H](c3ccc(O)c(O)c3)[C@H](OC(=O)c3cc(O)c(O)c(O)c3)C5)[C@H]3COC(=O)[C@H]23)OCO4)cc(OC)c1OC`, the TGI was more than 100 µM.

With `O=c1oc2ccccc2c(O)c1C(c1ccc2c(c1)Cc1ccccc1-2)c1c(O)c2ccccc2oc1=O`, the TGI was more than 100 µM.
